Measured values as given in a collection of fitness landscapes (doi:10.1016/j.celrep.2020.107928).
The full ranking holds about 81,000 sequences; the median of “one-hybrid fitness for binding parS DNA” is about -0.17, and the highest 2% start at about 0.51. This is one part of the list.

B1: Caulobacter ParB omega fusion; a variant is named by its letters at X, in order, B8GW30 (parent)
chain: MESVVVGEPGMSEGRRGLGRGLSALLGEVDAAPAQAPGEQLGGSREAPIEILQRNPDQPRRTFREEDLEDLSNSIREKGVLQPILVRPSPDTAGEYQIVAGERAWRAAQRAGLKTVPIMVRELDDLAVLEIGIIENVQRADLNVLEEALSYKVLMEKFERTQENIAQTIGKSXSHVANXMRLLXLPDEVQSYLVSGELTAXHARAIAAAADPVALAKQIIEGGLSVRETEALARKAPNLSAGKSKGGRPPRVKDTDTQALESDLSSVLGLDVSIDHRGSTGTLTITYATLEQLDDLCNRLTRGI

Variants of: B1
Assay: one-hybrid fitness for binding parS DNA (scaled: cognate 1, non-cognate 0); higher = stronger binding
Conditions: with parS DNA site
Outline: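 Selection: bacterial one-hybrid in E. coli USO, HIS3 reporter with the site 19 bp from the promoter, 48 hours at 37°C on M9-minus-histidine plus 0.1 mM IPTG and 5 mM 3-AT. Libraries were Caulobacter ParB with four randomised specificity codons, sequenced on Illumina before and after selection. Fitness is the rescaled log change in variant-to-wild-type read ratio, anchored to the cognate and non-cognate sites.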

one-hybrid fitness for binding parS DNA, 0.47:
RGIG

one-hybrid fitness for binding parS DNA, 1.07:
RIYS

one-hybrid fitness for binding parS DNA, 0.659:
RTNY

one-hybrid fitness for binding parS DNA, 0.961:
RNRS

one-hybrid fitness for binding parS DNA, ≤ 0.2:
DCIS
TCVA
WDSR
PQIA
DSLE
PSTW
DYLC
MAQC
VYPL
QRWQ
NELC
YFMG
FVNC
EAVT
QYWC
SSEQ
HSPS
TIQS
PVCC
TDAG
KVRS
CTLQ
KCNC
IASD
TYCG
MRVI
EPSL
RDSM
EMTC
PLLG
INLI
GGSG
REWC
YKQA
PSMH
KFST
NNPE
SIIT
NDHT
TWFV
CMKG
LSEI
YSML
NRFQ
LVEA
NRYF
HRYV
VSHE
TLES
PRDN
NSAR
KLRL
STRF
CMVG
CGTY
VFSV
FPEG
MPGG
GKPG
IRNM
TDAV
PSHR
HPQT
HQMM
CSMT
IKER
RHGH
TNDT
EEVG
RTLR
ETLK
NELS
QHCS
SFRL
TGGC
LPPV
TYST
KVQA
GRFC
FSKF
AALY
LMVA
NLIG
LQRH
YDNH
VQRH
SMSE
RSVV
IKSD
EPRS
NTHF
LRTW
SHEG
QHTT
VHER
SVYP
SSPI
STLN
YAVL
RLHI
KKPI
RTRP
TRTD
VMTG
RPAL
VWRY
QQNP
TYWT
CAQE
IAMM
KAQG
KCSM
DKAA
FKTT
CCQW
VEKR
DDGS
EDTT
MKWR
CTDT
FHKC
ACVR
MKFW
APTP
WVSR
DKQT
TSMP
DRER
QDCM
HSWT
PEYE
GAIR
HMKS
HDAA
HRRL
SVSR
NVKM
QDPL
GEHR
SLCP
HITS
PMNH
CWTL
IFRG
GGGV
IPSD
MNTI
HKTE
VVTR
RCMV
MCAL
TNIG
RYDP
RYSR
NLPT
TSYA
YTAG
IMCR
CAVG
GANT
NQPG
RKAV
DRTD
NPTA
TCNL
VPNV
PRML
RWPR
RGSE
AMPT
QWAT
DPLM
RPVR
KNPG
TSLM
CLAR
PTCS
WPQL
REYT
YTKS
NPSW
FAKH
GPNP
VSWL
LISP
MMDS
GTVV
NLSR
PRHC
SHIY
LVCR
